Source: EPA's CvTdb concentration-time database
The source gives many values for each of these; only a part stands here.

Assays:
Experiment in all cases: concentration in plasma after dosing
[1] = tested on: Rat
[2] = tested on: Rat; details: dosed: Formamide, 36 mg/kg, oral, Female, Harlan Sprague Dawley
[3] = tested on: Rat; details: 5 h; dosed: Formamide; 90 mg/kg; iv; Male; Harlan Sprague Dawley
[4] = tested on: Rat; details: dosed: Pyridine, 25 mg/kg, oral, Female, F344
[5] = tested on: Rat; details: 4 h; dosed: Pyridine; 50 mg/kg; oral; Female; F344
[6] = tested on: Rat; details: dosed: Pyridine, 100 mg/kg, oral, Male, F344

NC=O [Formamide]
concentration in plasma [ng/mL], [1], dosed: Formamide
Details	Female	Male
0.25 h, 30 mg/kg, iv, F344	40500	–
0.25 h, 36 mg/kg, oral, Harlan Sprague Dawley	24900	26100
0.25 h, 90 mg/kg, iv, Harlan Sprague Dawley	–	116000
0.25 h, 300 mg/kg, oral, F344	–	155000
0.25 h, 300 mg/kg, oral, Harlan Sprague Dawley	150000	–
0.25 h, 600 mg/kg, oral, Harlan Sprague Dawley	402000	402000
0.5 h, 30 mg/kg, iv, F344	33400	–
0.5 h, 36 mg/kg, oral, Harlan Sprague Dawley	41200	33000
0.5 h, 90 mg/kg, iv, Harlan Sprague Dawley	–	111000
0.5 h, 90 mg/kg, iv, Harlan Sprague Dawley - this seems too small	–	120000
0.5 h, 300 mg/kg, oral, Harlan Sprague Dawley	185000	–
0.5 h, 600 mg/kg, oral, F344	610000	–
0.5 h, 600 mg/kg, oral, Harlan Sprague Dawley	712000	–
1 h, 30 mg/kg, iv, F344	36400	–
1 h, 36 mg/kg, oral, Harlan Sprague Dawley	45800	46600
1 h, 90 mg/kg, iv, Harlan Sprague Dawley	–	193000
1 h, 300 mg/kg, oral, F344	170000	–
1 h, 300 mg/kg, oral, Harlan Sprague Dawley	180000	–
1 h, 600 mg/kg, oral, Harlan Sprague Dawley	685000	800000
1.5 h, 36 mg/kg, oral, Harlan Sprague Dawley	47900	42000
1.5 h, 300 mg/kg, oral, Harlan Sprague Dawley	276000	–
1.5 h, 600 mg/kg, oral, Harlan Sprague Dawley	727000	761000
2 h, 30 mg/kg, iv, F344	43100	–
2 h, 36 mg/kg, oral, Harlan Sprague Dawley	41400	–
2 h, 90 mg/kg, iv, Harlan Sprague Dawley	–	135000
2 h, 300 mg/kg, oral, F344	208000	–
2 h, 300 mg/kg, oral, Harlan Sprague Dawley	254000	–
2 h, 600 mg/kg, oral, Harlan Sprague Dawley	542000	782000
3 h, 30 mg/kg, iv, F344	33100	–
3 h, 90 mg/kg, iv, Harlan Sprague Dawley	–	141000
5 h, 30 mg/kg, iv, F344	29900	–
5 h, 36 mg/kg, oral, Harlan Sprague Dawley	42600	48800
5 h, 90 mg/kg, iv, Harlan Sprague Dawley	–	103000
5 h, 300 mg/kg, oral, F344	–	244000
5 h, 300 mg/kg, oral, Harlan Sprague Dawley	245000	–
5 h, 600 mg/kg, oral, Harlan Sprague Dawley	750000	813000
5 min, 30 mg/kg, iv, F344	42800	–
5 min, 36 mg/kg, oral, Harlan Sprague Dawley	5000	–
5 min, 90 mg/kg, iv, Harlan Sprague Dawley	–	141000
5 min, 300 mg/kg, oral, F344	61900	–
5 min, 300 mg/kg, oral, Harlan Sprague Dawley	50100	–
5 min, 600 mg/kg, oral, Harlan Sprague Dawley	226000	175000
8 h, 30 mg/kg, iv, F344	24200	–
8 h, 36 mg/kg, oral, Harlan Sprague Dawley	31200	44100
8 h, 90 mg/kg, iv, Harlan Sprague Dawley	–	96000
8 h, 300 mg/kg, oral, Harlan Sprague Dawley	386000	–
8 h, 600 mg/kg, oral, F344	–	701000
8 h, 600 mg/kg, oral, Harlan Sprague Dawley	725000	700000
10 min, 30 mg/kg, iv, F344	46800	–
10 min, 36 mg/kg, oral, Harlan Sprague Dawley	19600	–
10 min, 90 mg/kg, iv, Harlan Sprague Dawley	–	53400
10 min, 300 mg/kg, oral, F344	137000	–
10 min, 300 mg/kg, oral, Harlan Sprague Dawley	87600	–
10 min, 600 mg/kg, oral, Harlan Sprague Dawley	509000	452000
12 h, 30 mg/kg, iv, F344	21300	–
12 h, 36 mg/kg, oral, Harlan Sprague Dawley	25500	32400
12 h, 90 mg/kg, iv, Harlan Sprague Dawley	–	88600
12 h, 300 mg/kg, oral, Harlan Sprague Dawley	340000	–
12 h, 600 mg/kg, oral, F344	–	626000
12 h, 600 mg/kg, oral, Harlan Sprague Dawley	637000	603000
18 h, 30 mg/kg, iv, F344	16400	–
18 h, 90 mg/kg, iv, Harlan Sprague Dawley	–	30100
20 h, 36 mg/kg, oral, Harlan Sprague Dawley	18100	–
20 h, 300 mg/kg, oral, F344	155000	–
20 h, 300 mg/kg, oral, Harlan Sprague Dawley	204000	–
20 h, 600 mg/kg, oral, Harlan Sprague Dawley	293000	491000
24 h, 30 mg/kg, iv, F344	4200	–
24 h, 90 mg/kg, iv, Harlan Sprague Dawley	–	31900
30 h, 36 mg/kg, oral, Harlan Sprague Dawley	9200	10400
30 h, 300 mg/kg, oral, Harlan Sprague Dawley	166000	–
30 h, 600 mg/kg, oral, Harlan Sprague Dawley	191000	373000
36 h, 30 mg/kg, iv, F344	2100	–
36 h, 90 mg/kg, iv, Harlan Sprague Dawley	–	20600
48 h, 30 mg/kg, iv, F344	1200	–
48 h, 36 mg/kg, oral, Harlan Sprague Dawley	3700	4600
48 h, 90 mg/kg, iv, Harlan Sprague Dawley	–	13100
48 h, 90 mg/kg, iv, Harlan Sprague Dawley - this seems too small	–	5400
48 h, 300 mg/kg, oral, Harlan Sprague Dawley	60900	–
48 h, 600 mg/kg, oral, F344	133000	–
48 h, 600 mg/kg, oral, Harlan Sprague Dawley	78600	–
72 h, 36 mg/kg, oral, Harlan Sprague Dawley	2600	2800
72 h, 300 mg/kg, oral, F344	3100	–
72 h, 300 mg/kg, oral, Harlan Sprague Dawley	25400	–
72 h, 600 mg/kg, oral, Harlan Sprague Dawley	29300	45000
96 h, 90 mg/kg, iv, Harlan Sprague Dawley	–	2700

[2]
Details	concentration in plasma [ng/mL]
2 h	42800
5 min	9800

Details	concentration in plasma [ng/mL]
[3]	112000

c1ccncc1 [Pyridine]
concentration in plasma [ng/mL], [1], dosed: Pyridine
Details	iv	oral
0.05 h, 5 mg/kg, Female, F344	4590	–
0.25 h, 0.5 mg/kg, Male, F344	269	–
0.25 h, 5 mg/kg, Female, F344	3510	–
0.25 h, 10 mg/kg, Male, Harlan Sprague Dawley	4190	–
0.5 h, 5 mg/kg, Female, F344	3200	2790
0.5 h, 25 mg/kg, Female, F344	–	17500
0.5 h, 100 mg/kg, Male, F344	–	44700
1 h, 0.5 mg/kg, Male, F344	54.4	–
1 h, 5 mg/kg, Female, F344	–	3300
1 h, 5 mg/kg, Male, F344	2000	–
1 h, 10 mg/kg, Female, Harlan Sprague-Dawley	–	869
1 h, 10 mg/kg, Male, F344	–	2540
1 h, 10 mg/kg, Male, Harlan Sprague Dawley	–	4080
1 h, 10 mg/kg, Male, Harlan Sprague Dawley - this seems too small	–	3450
1 h, 25 mg/kg, Female, F344	–	18400
1 h, 50 mg/kg, Female, F344	–	21100
1 h, 50 mg/kg, Male, Harlan Sprague Dawley	–	30000
1 h, 100 mg/kg, Male, F344	–	59900
1 h, 200 mg/kg, Female, F344	–	91300
1 h, 200 mg/kg, Female, Harlan Sprague Dawley	–	84500
2 h, 5 mg/kg, Female, F344	2560	2750
2 h, 10 mg/kg, Male, F344	–	268
2 h, 10 mg/kg, Male, Harlan Sprague Dawley	2530	2710
2 h, 25 mg/kg, Female, F344	–	18200
2 h, 50 mg/kg, Female, F344	–	23300
2 h, 50 mg/kg, Male, Harlan Sprague Dawley	–	21600
2 h, 100 mg/kg, Female, F344	–	60700
2 h, 200 mg/kg, Female, F344	–	92100
2 h, 200 mg/kg, Female, Harlan Sprague Dawley	–	115000
2 min, 10 mg/kg, Female, F344	513	–
2 min, 10 mg/kg, Male, Harlan Sprague Dawley	–	1260
2 min, 50 mg/kg, Female, F344	–	610
2 min, 50 mg/kg, Male, Harlan Sprague Dawley	–	17700
2 min, 200 mg/kg, Female, F344	–	21500
2 min, 200 mg/kg, Female, Harlan Sprague Dawley	–	91200
3 h, 5 mg/kg, Male, F344	2610	–
4 h, 5 mg/kg, Female, F344	–	2290
4 h, 10 mg/kg, Male, Harlan Sprague Dawley	–	818
4 h, 25 mg/kg, Female, F344	–	16000
4 h, 50 mg/kg, Female, F344	–	23500
4 h, 50 mg/kg, Female, Harlan Sprague Dawley	–	25900
4 h, 50 mg/kg, Male, Harlan Sprague Dawley	–	17600
4 h, 100 mg/kg, Female, Harlan Sprague-Dawley	–	60000
4 h, 100 mg/kg, Male, F344	–	56800
5 h, 200 mg/kg, Female, F344	–	57400
5 h, 200 mg/kg, Female, Harlan Sprague Dawley	–	90700
5 min, 0.5 mg/kg, Male, F344	527	–
5 min, 5 mg/kg, Female, F344	–	1450
5 min, 5 mg/kg, Female, Harlan Sprague-Dawley	6050	–
5 min, 10 mg/kg, Female, F344	2090	–
5 min, 10 mg/kg, Male, Harlan Sprague Dawley	230	–
5 min, 25 mg/kg, Female, F344	–	11700
5 min, 100 mg/kg, Female, Harlan Sprague-Dawley	–	23300
5 min, 100 mg/kg, Male, F344	–	20300
6 h, 5 mg/kg, Female, F344	1440	1900
6 h, 25 mg/kg, Female, F344	–	14800
6 h, 50 mg/kg, Female, F344	–	9520
6 h, 50 mg/kg, Female, Harlan Sprague Dawley	–	19800
6 h, 100 mg/kg, Male, F344	–	56100
8 h, 5 mg/kg, Female, F344	923	827
8 h, 5 mg/kg, Female, Harlan Sprague-Dawley	680	–
8 h, 25 mg/kg, Female, F344	–	16600
8 h, 100 mg/kg, Male, F344	–	71600
9 h, 200 mg/kg, Female, F344	–	68100
9 h, 200 mg/kg, Female, Harlan Sprague Dawley	–	92000
10 h, 5 mg/kg, Male, F344	76.4	–
10 min, 10 mg/kg, Male, Harlan Sprague Dawley	–	3960
10 min, 50 mg/kg, Female, F344	–	34600
10 min, 50 mg/kg, Male, Harlan Sprague Dawley	–	38100
10 min, 200 mg/kg, Female, F344	–	77600
10 min, 200 mg/kg, Female, Harlan Sprague Dawley	–	95200
14 h, 5 mg/kg, Female, F344	354	–
14 h, 25 mg/kg, Female, F344	–	10700
14 h, 25 mg/kg, Female, Harlan Sprague-Dawley	–	10500
14 h, 100 mg/kg, Female, F344	–	54100
20 min, 10 mg/kg, Male, Harlan Sprague Dawley	5700	5760
20 min, 50 mg/kg, Female, F344	–	36100
20 min, 50 mg/kg, Male, Harlan Sprague Dawley	–	40000
20 min, 200 mg/kg, Female, F344	–	103000
20 min, 200 mg/kg, Female, Harlan Sprague Dawley	–	119000
40 min, 10 mg/kg, Female, Harlan Sprague-Dawley	–	2410
40 min, 10 mg/kg, Male, Harlan Sprague Dawley	–	3750
40 min, 50 mg/kg, Female, F344	–	26800
40 min, 50 mg/kg, Male, Harlan Sprague Dawley	–	40200
40 min, 200 mg/kg, Female, F344	–	103000
40 min, 200 mg/kg, Female, Harlan Sprague Dawley	–	126000
50 min, 10 mg/kg, Male, Harlan Sprague Dawley	4030	4440

concentration in plasma [ng/mL]
Details	[4]	[6]
1 h	17100	64700
8 h	13900	66900

Details	concentration in plasma [ng/mL]
[5]	17800
